According to the RNAGym collection of RNA variant scans (doi:10.7554/elife.90254):
Read counts are not given, so values of variants with three or more changes are uncertain.

B1: OR4K15 (parent)
chain: GUUAACGGUCAUAGGCCAUGGAAACUAGGAGCACCAUUUCGCUGCCAGUGAAGAAAUGAACAAAGAAAAUCUGGGCCAGGCAGGCAUCAAAAGAAAUAGUCUUGCGCUCAACCAGAAAGUCUGUAAUCAUUUUAAGGGUA

Variants of: B1
Experiment: self-cleavage, relative activity (ratio to wild type); higher = more cleavage; in vitro, sequencing; the parent is a self-cleaving ribozyme

Variant | self-cleavage
GUUGACGGUCAUAGGCCAUGGAGACUAGGAGCACCAUUUCGCUGCCAGCGAAGAAAUGAACAAAGAAAAUCUGGGCCAGGCAGGCAUCAAAAGAAAUAGUCUUGCGCUCAACCAGAAAGUCUGUAAUCAUUUUAAGGGUA [A4G A23G U49C] | 0.22
GUUGACGGUCAUAGGCCGUGGAAACUAGGAGCACCAUUUCGCUGCCAGUGAAGAAGUGAACAAAGAAAAUCUGGGCCAGGCAGGCAUCAAAAGGAAUAGUCUUGCGCUCAACCAGAUAGUCUGUAAUCAUUUUAAGGGUA [A4G A18G A56G A94G A117U] | 1.45
GUUGACGGUCGUAGGCCAUGGAAACUAGGAGCACCAUUUCGCUGCCAGUGAAGAAGUGAACAAAGAAAAUCUGGGCCAGGCAGGCAUCAAAAGAAAUAGUCUUGCGCUCAACCAGAAAGUCUGUAAUCAUUUUGAGGCUA [A4G A11G A56G A134G G138C] | 0.85
GUGAACGGUCAUAGGCCAUGGAGUCUAGGAGCACCAUUUCGCUGCCAGUGAAGAAAUGAACAAAGAAAAUCUGGGCCAGGCAGGCAUCAAAAGAAAUAGUCUUGCGCUCAACCAGAAAGUUUGUAAUCAUUCUAAGGGUA [U3G A23G A24U C121U U132C] | 0.77
GUUGACGGUCUUAGGCCAUGGAAACUAGGAGCACCAUUUCGCUGCCAGUGAAGAAAUGAACAAAGAAAAUCUGGGCCAGGCAGGCAUCAAAAGAAAUAGUCUCGCGCUCAACCAGAAAGUCUGUAAUCAUUUUGAGGGUA [A4G A11U U103C A134G] | 0.5
GUUGACGGUCAUAGGCCAUGGAAACUAGGAGCACCGUUUCGCUGCCAGUGAAGAAAUGAACAAAGAAAAUCUGGGCCAGGCAGGCACCGAAAGAAAUAGUCAUGCGCUCAACCAGAAAGUCUGUAAUCACUUUAAGGGCA [A4G A36G U87C A89G U102A U130C U139C] | 0.24
GUCAACGGUCAUAGGCCAUGGAAACUAGGAGCACCAUUUCGCUGCCAGUGAAGAAAUGAACAAAGAAAAUCUGGGCCAGGCAGGCAUCAAAAGAAACAGUCCUGCGCUCAACCAGAAAGUCUGUAGUCAUUUUAAGGGUA [U3C U97C U102C A126G] | 0.76
GUUGACGGUCAUAGGCCAUGGAGACUAGGAGCACCAUUUCGCUGCCAGUGAAGAAAUGAACAAAGAAAAUCUGGGCCAGGCAAGCACCAAAAGAAAUAGUCUUGCGCUCAACCAGAAAGUCUGUAAACAUUUUAAGGGUA [A4G A23G G83A U87C U127A] | 1.96
GUUGACGGUCAUAGGCCAUGGAGACUAGGAGCAACAUUUCGCUGCCAGUGAAGAAAUGAACAAAGAAAAUCUGGGCCAGGCAGGCAUCAAGAGAAACAGUCUUGCGCUCAACCAGAAAGUCUGUAACCAUUUUAAGGGUA [A4G A23G C34A A91G U97C U127C] | 0.54
GUUGACGGUCAUAGGCCAUGGAUACUAGGAGCACCAUUUCGCUGCCAGUGAAGAAAUGAACAAAGAAAAUCUGGGCCAGGCAGGCAUCAAAAGAAGUAGUCUUGCGCUCAACCAGAAAGUCUGUAAUCAUUUUAAGGGUA [A4G A23U A96G] | 1.3
GUUGACGGUCAUAGGCCAUGGAAACUAGGUGCACCAUUUCGCUGCCAGUGAAGAAAUGAACAAAGAAAAUCUGGGUCAGGCAGGCAUCAAAAGAAAUAGUCUUGCGCUCACCCAGAAAGUCUGUAAUCAUUUUAAGGGUA [A4G A30U C76U A111C] | 0.07
GUGAACGGUCAUAGGCCAUGGAAACUAGGAGCACCAUUUCGCUGCCAGUGAAGAAGUGAACAAAGAAAAUCUGGGCCAGGCAGGCAUCAAAAGAAAUAGUCUUGCGCACAACCAGAAAGUCUGUAAUCAUUUUAAGGGUA [U3G A56G U108A] | 0.07
GUGAACGGUCAUAGGCCAUGGAAACUAGGAGCACCACUUCGCUGCCAGUGAAGAAAUGAACAAAGAAAAUCUGGGCCUGGCAGGCAUCAAAAGAAAUAGUCUUGCGCCCAACCAGAAAGUCUGUAAUCUUUUUAAGGGUA [U3G U37C A78U U108C A129U] | 0
GUUGACGGUCAUAGGCCGUGGAAACUAGGAGCACCAUUUCGCUGCCAGUGAAGAAGUGAACAAAGAAAAUCUGGGCCAGGCAGGCAUCAAAAGAAAUAGUCUUGCGCUCAACCAGAAAGUCUGUAAUCAUUUUAAGGGUA [A4G A18G A56G] | 2.2
GUUGACGGUCGUAGGCCAUGGAAACUAGGAGCACCAUUUCGCUGCCAGUGAAGAAAUGAACAAAGAAAAUCUGGGCCAGGCAGGCAUCAAAAGAAAUAGUCUUGCGCUCCACCAGAAAGUCUGUAAUCAUUUUAAGGGUA [A4G A11G A110C] | 0.35
GUGAACGGUCAUAGGCCAUGGAAACUAGGAGCACCGUUUCGCUGCCAGUGAAGAAGUGAACAAAGAAAAUCUGGGCCAGGCAGGCAUCAAAAGAAAUAGUCUUGCGCUCGACCAGAAAGUCUGUAAUCAUUUUAAGGGUA [U3G A36G A56G A110G] | 0.04
GUUGGCGGUCAUAGGCCAUGGAAGCUAGGAGCACCAUUUCGCUGCCAGUGGAGAAAUGAGCAGAGAAAAUCUGGGCCAGGCGGGCAUCUAAAGAAAUAGUCUUGCGCCCAACCAGAAAGUCUGUAAUCAUUUUAAGGGUA [A4G A5G A24G A51G A60G A63G A82G A89U U108C] | 0
GUUGACGGUCCUAGGCCGUGGUAACUAGGAGCACCAUUUCGCUGCCAGUGAAGAAAUGAACAAAGAAAAUCUGGGCCAGGCAGGCAUCAAAAGAAAUAGUCUUGCGCUCAACCAGAAAGUCUGUAAUCAUUUUAAGGGUA [A4G A11C A18G A22U] | 0.88
GUUGACGGUCAUAGGCCAUGGAGACUAGGAGCACCAUUUCGCUGCCAGUGUAGAAAUGAACAAAGAAAAUCUGGGCCAGGCAGGCAUCAAAAGAAAUAGUCUUGCGCUCAACCAGAAAGUCUGUAAUCAUUUUAAGGGUA [A4G A23G A51U] | 2.29
GUUGGCGGUCAUAGGCCAUGGAAACUAGGAGCACCAUUUUGCUGCCUGUGAAGAAAUGAACAAAGAGAAUCUGGGCCAGGCAGGCACCAAAAGAAAUAGUCUUGCGCUCAACCAGAAAGUCUGUAAUCAUUUUAAGGGUA [A4G A5G C40U A47U A67G U87C] | 0.52
GUUGACGGUCAUAGGCCAUGGAAACUAGGAGCACCGUUUCGCUGCCAGUGAAGAAGUGAACAAAGAAAAUCUGGGCCAGGCAGGCAUCAAAAGAGAUAGUCUUGCGCCCAACCAAAAAGUCUGUAAUCAUUUUAAGGGUA [A4G A36G A56G A95G U108C G115A] | 0.03

Variant | self-cleavage
GUUGACGGUCAUAGGCCAUGGAAGCUAGGAGCACCAUUUCGCUGCCAGUGAAGAAAUGAACAAAGAAAAUCUGGGCCAGGCAGGCAUCAAAAGAAAUAGUCUUGCGCUCAACCAGAAAGUCUGUAAUCGUUUUAAGGGUA [A4G A24G A129G] | 0.66
GUCAACGGUCAUAGGCCAUGGAAACUAGGAGCACCAUUUCGCUGCCAGUGAAGAAAUGAACAAAGAAAAUCUGGGCCAGGCAGGCAUCAAAAGAAAUAGUCUUGCGCCCAACCAGAAAGUCUGUGAUCAUUUUAAGGGUA [U3C U108C A125G] | 0.04
GUUGACGGUCAUAGGCCAUGGAAACUAGGAGCACCUUUUCGCUGCCAGUGAUGAAAUGAACAAAGAAAAUCUGGGCCAGGCAGGCAUCUAAAGAAAUAGUCUUGCGCUCAACCAGAAAGUCUGUAAUCAUUUUAAGGGUA [A4G A36U A52U A89U] | 1.03
GUGAACGGUCAUAGGCCAUGGAAACUAGGAGCUCCAUUUCGCUGCCAGUGAAGAAAUGAGCAAAGAAAAUCUGGGCCAGGCAGGCAUCAGAAGAAAUAGUCUUGCGCUCAACCAGAAAGUCCGUAAUCAUUUUAAGGGUA [U3G A33U A60G A90G U122C] | 0.27
GUUGGCGGUCAUAGGCCAUGGAAACUAGGAGCACCAUCUCGCUGCCAGUGAAGAAAUGAACAAAGAAAAUCUGGGCCAGGCAGGCAUCAAAAGAAAUAGUCUUGCGCUCAACCAGAAAGUCUGUAAUCAUCUUAAGGGUA [A4G A5G U38C U131C] | 1.98
GUGAACGGUCAUAGGCCAUGGAAACUAGGAGCACCAUUUCGCUGCCAGUGAAGAAAUGAACAAAGAAAAUCUGGGCCAGGCAGGCAUCAAAAGAAAUAGUCUUGCGCUCAACCAGUAAGUCUGUAAUCAUUUUAAGGGAA [U3G A116U U139A] | 0.12
GUUGGCGGUCAUAGGCCAUGGAAACUAGGAGCACCAUUUCGCUGCCAGUGAAGAGAUGAACAAAGAAAAACUGGGCCAGGCAGGCAUCAAAGGGAAUAGUCUUGCGCUCAACCAGAAAGUCUGUAAUCAUUAUAAGGGUA [A4G A5G A55G U70A A92G A94G U132A] | 0.95
GUUGACGGUCGUAGGCCAUGGAAACUAGGAGCACCAUUUCGCUGCCAGUGAAGAAAUGAACAAAGAAAAUCUGGGCCAGGCAGGCAUCAAAAGAAAUAGUCUUGCGCUCAACCAGAAAGUCUGUAAUCAUCUUAAGGGUA [A4G A11G U131C] | 0.79
GUUGACGGUCAUAGGCCUUGGAAACUAGGAGCACCACUUCGCUGCCAGUGAAGAAAUGAACAAAGAAAGUCUGGGCCAGGCAGGCAUCAAAAGAAAUAGUCUUGCGCUCAACCAGAAAGUCUGUAAUCAUUUUAAGGGUA [A4G A18U U37C A69G] | 2.58
GUUGACGGUCAUAGGCCGUGGAAACUAGGAGCACCAUUUCGCUGCCAGUGAAGAAAAGAACAAAGAAAAUCUGGGCCAGGCAGGCAUCAAAAGAAAUAGUCUUGCGCUCAACCAGAAAGUCUGUAAUCAUUUUAAGGGUA [A4G A18G U57A] | 1.48
GUUGACGGUCAUAGGCCAUGGAAGCUAGGAGCACCAUUUCGCUGCCAGUGAAGAAGUGAACAAAGAAAAUCUGGGCCAGGCAGGCAACAAAAGAAAUAGUCUUGCGCUCAACCAGAAAGUCUGUAAUCAUUUUAAGGGUA [A4G A24G A56G U87A] | 1.38
GUUGACGGUCAUAGGCCAUGGAGACUAGGAGCACCAUUCCGCUGCCAGUGAAGAAAUGAACAAAGAAAAUCUGGGCCAGGCAGGCAUCAAAAGAAAUAGUCUUGCGCUCAACCAGAAAGUCUGUAAUCAUUUUAUGGGUA [A4G A23G U39C A135U] | 0.34
GUUGGCGGUCAUAGGCCAUGGAAACUAGGAGCACCAUCUCGCUGCCAGUGAAGAAAUGAACGAAGAAAGUCUGGGCCAGGCAGGCAUCAAAAGAAAUAGUCUUGCGCUCAACCAGAAAGUCUGUAAUCAUUUUAAGGGUA [A4G A5G U38C A62G A69G] | 1.05
GUGAACGGUCAUAGGCCAUGGAAACUAGGAGCACCAUUUCGCUGCCAGUGAAGAAAUGAACAAAGAAAAUCUGGGCCAGGCUGGCAUCAAAAGAAAUAGUCUUGCGCUCAACCAGAAAGUCUGUAAUCAUUUUAAGGGCA [U3G A82U U139C] | 0.42
GUCAACGGUCAUAGGCCAUGGAAACUAGGAGCACCAUUUCGCUGCCAGUGAAGAAAUGAACAAAGAAAAUCUGGGCCAGGCAGGCAUCAAAAGAAAUAGUCUUGCGCUCAACCAGAAAGUCUGGAAUCAUUUUGAGGGUA [U3C U124G A134G] | 0.95
GUUGUCGGACAUAGGCCAUGGAAACUAGGAGCACCAUUUCGCUGCCAGUGAAGAAAUGAACAAAGAAUAUCUGGGCCAGGCAGGCAUCAAAAGAAAUAGCCUUGCGCUCAACCAGAAAGUCUGUAAUCAUUUUAAGGGUA [A4G A5U U9A A68U U100C] | 2.09
GUUGACGGUCGUAGGCCAUGGAAACUAGGAGCACCAUUUCGCUGCCAGUGAAGAAAUGAACAGAGAAAAUCUGGGCCGGGCAGGCAUCAAAAGAAAUAGUCUUGCGCUCAACCAGAAAGUCUGUAAUCAUUUUAAGGGUA [A4G A11G A63G A78G] | 0.31
GUUGACGGUCAUAGGCCAUGGAAACUCGGAGCACCAUUUCGCUGCCAGUGAAGAAAUGAACGAGGAAAAUCUGGGCCAGGCAGGCAUCAAAAGAAAUAGUCUUGUGCUCAACCAGAAAGUCUGUAAUCAUUUUAAGGGUA [A4G A27C A62G A64G C105U] | 0.14
GUCAACGGUCAUAGGCCAUGGAAACUAGGAGCACCAUUUCGCUGCCAGUGAAGAAAUGAACAAAGAAAAUCUGGGCCAGGCAGGCAUCAAAAGAAAUAGUCUUGCGCACAACCAGGAAGUCUGGAAUCAUUCUAAGGGUA [U3C U108A A116G U124G U132C] | 0.01
GUUGACGGUCAUAGGCCAUGGAGACUAGGAGCACCAUUUCGCUGCCAGCGAAGAAAUGAACAAAGAAAAUCCGGGCCAGGCAGGCAUCAAAAGAAAUAGUCUUGCGCUCAACCAGAAAGUCUAUACUCAUUUUAAGGGUA [A4G A23G U49C U72C G123A A126C] | 0.26
